Source: publication PMC4336329 (PLoS ONE, 2015)
The campaign covered roughly 310,000 compounds. About 2,200 (0.71%) showed an effect of 50% or more. The effect is printed as a negative number. This is one part of the list.

Molecular target: human ether-à-go-go-related gene (hERG) potassium channel (human, UniProt Q12809)
Assay: primary screen, population patch clamp on CHO cells stably expressing hERG

Chain of human ether-à-go-go-related gene (hERG) potassium channel (Q12809 whole entry, looked up): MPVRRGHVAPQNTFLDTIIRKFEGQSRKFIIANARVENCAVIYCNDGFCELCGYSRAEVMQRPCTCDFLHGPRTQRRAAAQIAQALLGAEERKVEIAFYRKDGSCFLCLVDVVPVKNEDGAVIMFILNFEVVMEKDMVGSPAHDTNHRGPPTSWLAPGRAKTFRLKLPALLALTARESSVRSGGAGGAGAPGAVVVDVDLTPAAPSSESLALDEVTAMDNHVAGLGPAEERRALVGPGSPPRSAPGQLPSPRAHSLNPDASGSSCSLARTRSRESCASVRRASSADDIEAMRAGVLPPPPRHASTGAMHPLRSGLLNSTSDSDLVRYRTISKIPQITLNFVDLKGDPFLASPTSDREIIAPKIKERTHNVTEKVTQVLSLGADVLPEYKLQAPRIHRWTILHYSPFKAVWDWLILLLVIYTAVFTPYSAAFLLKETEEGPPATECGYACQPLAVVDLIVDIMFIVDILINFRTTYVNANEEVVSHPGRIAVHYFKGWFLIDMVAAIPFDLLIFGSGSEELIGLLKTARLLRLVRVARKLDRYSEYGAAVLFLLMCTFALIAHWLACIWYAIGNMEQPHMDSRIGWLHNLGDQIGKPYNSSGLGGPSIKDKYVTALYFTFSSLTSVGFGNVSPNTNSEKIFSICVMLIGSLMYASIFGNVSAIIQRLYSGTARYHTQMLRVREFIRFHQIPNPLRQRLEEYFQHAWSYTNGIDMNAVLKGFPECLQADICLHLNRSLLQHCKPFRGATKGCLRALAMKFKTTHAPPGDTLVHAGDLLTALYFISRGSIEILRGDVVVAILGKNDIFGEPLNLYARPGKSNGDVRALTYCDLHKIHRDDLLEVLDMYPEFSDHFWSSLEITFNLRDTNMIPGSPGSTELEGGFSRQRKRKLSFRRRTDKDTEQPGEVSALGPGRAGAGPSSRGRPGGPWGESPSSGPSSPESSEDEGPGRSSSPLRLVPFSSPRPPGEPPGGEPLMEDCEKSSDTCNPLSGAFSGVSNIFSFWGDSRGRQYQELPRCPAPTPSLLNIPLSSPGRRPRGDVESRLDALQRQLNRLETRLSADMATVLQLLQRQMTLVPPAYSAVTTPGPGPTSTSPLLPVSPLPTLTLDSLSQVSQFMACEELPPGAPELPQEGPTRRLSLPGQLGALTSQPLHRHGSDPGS

In order of falling “hERG current change (%, negative = inhibition) at 1uM” value:
1. C[n+]1ccc(C(=O)NCc2ccccc2)cc1.[I-]  24.3%
2. CCN(c1ccccc1)S(=O)(=O)c1ccc(Cl)c(C(=O)OCC(=O)NC(=O)C(C)C)c1  22.4%
3. Cc1[nH]n(-c2ccccc2)c(=O)c1N=Nc1ccccc1C(=O)N1CCCCC1  20.3%
4. COc1ccc(OC)c(-n2c(O)c(C=Nc3c(C)n(C)n(-c4ccccc4)c3=O)c(=O)[nH]c2=O)c1  19.7%
5. CC(C)N(CCC(=O)c1ccc2ccccc2c1)Cc1ccccc1.Cl  19.5%
6. CCOC(=O)c1sc(NC(=S)NC(=O)c2cccc(OC)c2)nc1C  19.1%
7. Cc1csc2nc(O)c(C(=O)NC3CCCCCC3)c(=O)n12  18.7%
8. O=C(Nc1nnc(CSCc2ccc(F)cc2)s1)c1cccc([N+](=O)[O-])c1  18.4%
9. CCCc1cc(=O)[nH]c(SCC(=O)Nc2ccccc2C#N)n1  17.3%
10. Cc1coc2c1c(C)cc1oc(=O)c(CC(=O)NCCC(=O)O)c(C)c12  17.2%
11. Cc1cc(C)nc(NC(=O)c2ccccc2O)n1  16.4%
12. CC(=O)c1ccc(NC(=O)CCCN2C(=O)/C(=C/C(C)=C/c3ccccc3)SC2=S)cc1  15.3%
13. C[N+]1(C)CCC(OC(=O)C(O)(c2ccccc2)C2CCCC2)C1.[Br-] (stereo not drawn)  14.6%
14. O=C(COC(=O)c1ccc([N+](=O)[O-])cc1Cl)NC(=O)c1ccccc1  14.5%
15. CC(=O)C1C(c2ccc(Cl)cc2)c2c(n[nH]c2C)CC1(C)O (stereo not drawn)  14.4%
16. COc1ccc(C(=O)NC23CC4CC(CC(C4)C2)C3)cc1  14.3%
17. NC(=O)COc1ccc2cc(-c3ccc(F)cc3)c(=O)oc2c1  14%
18. CCN(CC)S(=O)(=O)c1ccc(/C=C/C(=O)OCC(=O)Nc2cccc3ccccc23)cc1  13.3%
19. O=C(CSc1nnc(NC(=O)c2c(F)cccc2F)s1)NC1CCCC1  13.2%
20. O=C1CN(C(=O)c2ccc(Cl)c([N+](=O)[O-])c2)c2ccccc2N1  13.2%
21. CCCCNC(=O)C1CCC(CNS(=O)(=O)c2ccc(C)cc2)CC1 (stereo not drawn)  13%
22. COc1ccc(CCNS(=O)(=O)c2ccc3c(c2)NC(=O)CO3)cc1OC  13%
23. CC(=O)c1ccc(NC(=O)C2Cc3ccccc3CN2C(=O)c2ccccc2)cc1 (stereo not drawn)  13%
24. CN1CCC(N(CCc2ccccc2)C(=O)CCC(=O)O)CC1  12.9%
25. O=C(NNc1ncnc2ccccc12)c1cccc(Cl)c1  12.8%
26. Cc1cc(NC(=O)CSc2nnnn2C2CCCC2)no1  12.5%
27. CSc1nnc(SCC(=O)N(C)c2c(N)n(Cc3ccccc3)c(=O)[nH]c2=O)s1  12.4%
28. CSc1nc(SCC(=O)NCC2CCCO2)c2c3c(sc2n1)CN(C)CC3 (stereo not drawn)  12.3%
29. NC(=O)CSc1nc2scc(-c3ccc(Cl)cc3)c2c(=O)n1Cc1ccccc1  12.3%
30. Cn1c(SCC(=O)c2ccc(F)cc2)nnc1-c1ccccn1  12.2%
31. CN(C)S(=O)(=O)Nc1ccccc1C(N)=O  12.2%
32. C[C@]12CC[C@@H](O)C[C@H]1CC[C@@H]1[C@@H]2CC[C@]2(C)C(=O)CC[C@@H]12  11.4%
33. CCN1CCN(S(=O)(=O)c2ccc(Cl)c(C(=O)Nc3nnc(C)s3)c2)CC1  10.9%
34. Cc1cc(C)c(NC(=O)COC(=O)Cc2cccs2)c(C)c1  10.9%
35. CC(C)N(Cc1cn(C)nc1-c1cccc(Cl)c1)CC1CCC(=O)N1 (stereo not drawn)  10.9%
36. COc1ccc(C(=O)Nc2ccc(OC)c([N+](=O)[O-])c2)cc1Br  10.8%
37. CN(CC(=O)NCCCc1ccccc1)S(=O)(=O)c1ccc(Br)cc1  10.7%
38. Cc1ccc2nc(-c3cccc(S(=O)(=O)N4CCCC4)c3)cn2c1  9.96%
39. CCC1(OC(=O)c2ccccc2)CC(C)N(C)CC1C.Cl (stereo not drawn)  9.95%
40. O=C(N/N=C/c1ccc(OC(=O)c2ccco2)cc1)c1ccccn1  9.86%
41. O=C(CCN1C(=O)/C(=C/c2ccc(F)cc2)SC1=S)N[C@@H](CO)Cc1ccccc1  9.57%
42. COCc1cc(C)nc(N)c1C#N  9.47%
43. Cc1ccc2c(c1)NC(=O)C(CC(=O)NCCCN1CCCC1=O)O2 (stereo not drawn)  9.03%
44. C[C@@H]1CC[C@]2(O[C@H](CCO)C[C@@H](O)[C@@H]2O)O1  8.9%
45. CCCCn1c(O)c(C(CC)=NCCCn2ccnc2)c(=O)[nH]c1=O  8.56%
46. CC1CC(C)CN(C(=O)Cn2nnc(-c3ccc(Br)cc3)n2)C1 (stereo not drawn)  8.54%
47. O=C(CSc1nnc(NC(=O)c2c(F)cccc2F)s1)NCc1ccc(F)cc1  8.31%
48. CCCCn1c(N)c(N(CCOC)C(=O)c2ccc(C)c(S(=O)(=O)N3CCOCC3)c2)c(=O)[nH]c1=O  8.24%
49. Cn1nnnc1SCSc1nnnn1C  8.16%
50. CCC(OC(=O)c1ccco1)C(=O)NC1CCCC1 (stereo not drawn)  8.14%
51. COc1ccccc1OCCCC(=O)NC(C)c1ccccc1 (stereo not drawn)  8%
52. CCOC(=O)c1sc(Nc2nc(OC)cc(OC)n2)nc1C  7.92%
53. CC(Oc1cccc(Cl)c1)c1ccnc2nc(/N=C/N(C)C)nn12 (stereo not drawn)  7.85%
54. CCOc1ccccc1N1CCN(C(=O)c2ccccc2OCc2c(C)noc2C)CC1  7.64%
55. O=C(CCCCn1c(=O)[nH]c2ccccc2c1=O)NCCC1=CCCCC1  7.59%
56. COc1ccc(CNCCCC(=O)Nc2c(Cl)ccc(C)c2Cl)cc1OC  7.55%
57. CCOC(=O)CN(C(=O)CSc1nnc(CNc2ccc(F)cc2)o1)c1ccccc1  7.53%
58. COC(=O)c1sc2ccccc2c1N  5.18%
59. CC(NC(=O)Cc1c(F)cccc1Cl)C1CCCO1 (stereo not drawn)  4.96%
60. Cc1ccccc1S(=O)Cc1ccc(C(=O)NC2CCN(Cc3ccccc3)CC2)o1 (stereo not drawn)  4.68%
61. CC(C)n1cc(C(=O)N(CC(=O)NC2CCCC2)Cc2ccccc2)cn1  3.73%
62. COc1ccc(F)cc1S(=O)(=O)n1nc(C)cc1C  3.39%
63. CCOC(=O)c1sc(NC(=O)Nc2ccccc2F)nc1C  3.34%
64. CCOc1cc2[nH]c(=S)n(CCCN3CCCC3=O)c(=O)c2cc1OCC  2.89%
65. Cc1nc2ccccc2c(=O)n1C1CCCCCC1  2.13%
66. O=S(=O)(c1cc(Cl)ccc1Cl)N1CCN(Cc2ccco2)CC1  1.89%
67. CCN(CC)c1ccc(C(=O)N/N=C(\C)c2cccnc2)cc1  1.72%
68. Oc1ccc(/C=N/N2CCN(C3c4ccccc4-c4ccccc43)CC2)c(O)c1  1.21%
69. O=C(Oc1c(-c2ccccc2Cl)oc2ccccc2c1=O)c1ccc(Cl)cc1  0.761%
70. CCC(C(=O)OCC(=O)Nc1cccc(S(=O)(=O)NC2=NCCCCC2)c1)c1ccccc1 (stereo not drawn)  0.27%
71. O=C1CCCN1CCC1CCN(C(=S)Nc2ccc(F)cc2)CC1  0.262%
72. COc1cc(NC(=S)NCc2ccc(S(N)(=O)=O)cc2)c(OC)cc1Cl  0.0964%
73. CC(C)CCNC(=O)CCc1nnc2n(CCCOC(C)C)c(=O)c3ccccc3n12  0.0861%
74. CCCC(=O)c1ccc(-c2ccccc2)cc1  -0.0723%
75. CN1CCN(S(=O)(=O)c2cccc(C(=O)NCCOc3ccccc3)c2)CC1  -0.534%
76. CC1CN(S(=O)(=O)c2ccccc2)CC(C)O1 (stereo not drawn)  -1.04%
77. O=C(N/N=C/c1ccncc1)c1cc(Br)ccc1OCc1ccccc1  -1.49%
78. O=C(O)C1CCCNC1 (stereo not drawn)  -1.74%
79. C#CCOC(=O)/C(=C/c1ccc(F)cc1)NC(C)=O  -1.96%
80. O=C(CN1CCCC1)Nc1cc(F)ccc1F  -3.94%
81. CN(CC(=O)NCc1cccs1)CC(=O)Nc1ccc(F)c(F)c1F  -3.97%
82. Cn1cc(S(=O)(=O)N2CCOCC2)cc1C(=O)NCc1ccccc1Cl  -4.53%
83. O=C(NCCOC(=O)C1COc2ccccc2O1)C1COc2ccccc2O1 (stereo not drawn)  -4.55%
84. COc1cc2c(cc1OC)C(Nc1ccccc1)=NC(C)(C)C2  -4.73%
85. O=C(Nc1cccc(Br)c1)c1ccccc1-c1ccccc1  -5.69%
86. COC(=O)c1c(-c2ccccc2)csc1NC(=O)c1c(-c2ccccc2)noc1C  -10%
87. COC(=O)Nc1ccc(S(=O)(=O)N2CCC(C)CC2)cc1  -10.2%
88. Cc1ccc(-c2cn(-c3ccc(OC(F)F)cc3)c3[n+]2CCCCC3)cc1.[Br-]  -13.3%
89. Cc1ccc(S(=O)(=O)c2nc(S(C)(=O)=O)sc2NCC2CCCO2)cc1 (stereo not drawn)  -16.2%
90. Cc1cc(CN(C)C(=O)c2ccc(OC3CCN(CCc4ccccc4)CC3)cc2)on1  -77.5%
